# Laboratory results from PubChem BioAssay (Tox21).
# “And” between values parts separate entries of the source, which are not always exact repeats. Equal entries are not always repeated. The shares of active, inactive and inconclusive entries below differ from those in the screen. For some assays here: Potencies of inconclusive entries are doubtful fits and often do not repeat. The source made the active and inactive calls. Unless noted, calls follow the shape of the dose curve; as a rule, active = well fitted curve in the direction sought with a large enough effect in the repeat runs; inconclusive = weak or mixed curves; inactive = no such curve, though single readings can be large; an effect the other way counts as inactive or inconclusive.
# Key:
# [1] = qHTS RealTime-Glo MT Cell Viability Assay in HEK293 cells - 0 hour (AID 1224880); also: nearly all actives have a fitted effect of over 45% in size; also: potency is read from the fitted curve at half-maximal effect; as to activity change, negative = cytotoxicity: top concentration of the series differs between compounds; % is scaled to controls: 0 for no effect and ±100 for the full control effect
# Outline: (§1)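 Kinetic, non-lysing viability readout. Seed HEK293 (600/well) with reagent, incubate 5 h at 37 C/5% CO2, pin 23 nL compound in DMSO, incubate at 37 C, read luminescence at 0, 8, 16, 24, 32, 40 h.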
# [2] = A CellTox Green Cytotoxicity Assay to monitor cytotoxicity in HEK293 cells - 32 hour (AID 1224881); also: nearly all actives have a fitted effect of over 40% in size; also: potency is read from the fitted curve at half-maximal effect
# Outline: (§2)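 Real-time, in one plate: 600 HEK293 cells/well with dead-cell DNA dye, pinned compound after 5 h, 37 C incubation over 40 h; viable cells give no appreciable fluorescence.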
# [3] = qHTS RealTime-Glo MT Cell Viability Assay in HEK293 cells - 24 hour (AID 1224886); also: nearly all actives have a fitted effect of over 50% in size; also: potency is read from the fitted curve at half-maximal effect; as to activity change, negative = cytotoxicity: top concentration of the series differs between compounds; % is scaled to controls: 0 for no effect and ±100 for the full control effect
# Outline: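 Reads taken at 0, 8, 16, 24, 32 and 40 h from the same wells. HEK293 cells (600/well) carried RealTime-Glo reagents from seeding, with compound added after a 5 h settle at 37 C.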
# [4] = qHTS RealTime-Glo MT Cell Viability Assay in HEK293 cells - 8 hour (AID 1224887); also: potency is read from the fitted curve at half-maximal effect; nearly all actives have a fitted effect of over 50% in size
# Outline: as §1
# [5] = A CellTox Green Cytotoxicity Assay to monitor cytotoxicity in HEK293 cells - 16 hour (AID 1224888); also: potency is read from the fitted curve at half-maximal effect; nearly all actives have a fitted effect of over 35% in size
# Outline: as §2
# [6] = qHTS assay to identify small molecule antagonists of the estrogen receptor alpha (ER-alpha) signaling pathway using the BG1 cell line in the presence of 0.1 nM 17-beta-estradiol - cell viability counter screen (AID 1259241); also: % is scaled to controls: 0 for no effect and ±100 for the full control effect; nearly all actives have a fitted effect of over 40% in size
# Outline: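 Cells were plated and left 24 hr, compounds in DMSO were pinned in, 17beta-estradiol was added to 0.1 nM final, and after 22 hr CellTiter-Fluor reagent was added for 30 min before fluorescence was read.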
# [7] = biological target: Estrogen receptor (Homo sapiens) (UniProt P03372); experiment: qHTS assay to identify small molecule antagonists of the estrogen receptor alpha (ER-alpha) signaling pathway using the BG1 cell line in the presence of 0.1 nM 17-beta-estradiol (AID 1259244); also: nearly all actives have a fitted effect of over 50% in size; also: potency is read from the fitted curve at half-maximal effect
# Outline: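 Luciferase signal from VM7Luc4E2 ERE-reporter cells, co-dosed with test compound and 0.1 nM final 17beta-estradiol for 22 h, read with ONE-Glo.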
# [8] = A CellTox Green Cytotoxicity Assay to monitor cytotoxicity in HepG2 cells - 32 hour (AID 1224883); also: nearly all actives have a fitted effect of over 50% in size; also: potency is read from the fitted curve at half-maximal effect
# Outline: (§3)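 Cytotoxicity was tracked as dead-cell DNA fluorescence in HepG2 cells treated with test compounds at 37 C; each time-point value comes from one kinetic series spanning 0, 8, 16, 24, 32 and 40 h.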
# [9] = qHTS assay to identify small molecule phospholipidosis (PLD) inducers (AID 1259344; active = well fitted curve in the direction sought with a large enough effect; inconclusive = small, poorly fitted or top-dose-only effect, or another doubt; inactive = no such curve, though single readings can be large; an effect the other way counts as inactive or inconclusive; also: potency is read from the fitted curve at half-maximal effect); conditions: HepG2 phospholipidosis, LipidTOX Red imaging, 24 h; PLD induction: at 38.3 µM (top of the series) unless noted
# Outline: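 Phospholipid accumulation was scored by imaging: fixed, Hoechst-counterstained HepG2 cells stained with LipidTOX Red after 24 h compound exposure at 37 C. Read-outs were pit count and pit intensity per well or per cell, with amiodarone and DMSO controls.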
# [10] = A CellTox Green Cytotoxicity Assay to monitor cytotoxicity in HepG2 cells - 0 hour (AID 1224882); also: potency is read from the fitted curve at half-maximal effect; nearly all actives have a fitted effect of over 35% in size
# Outline: as §3
# [11] = qHTS RealTime-Glo MT Cell Viability Assay in HepG2 cells - 0 hour (AID 1224889)
# Outline: (§4)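 HepG2 suspension premixed with RealTime-Glo reagents is plated at 600 cells per well and left 5 h at 37 C/5% CO2. Compounds in DMSO then go in, and bioluminescence reflecting viable cell number is recorded over 40 h.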
# [12] = biological target: Androgen receptor (Homo sapiens) (UniProt P10275); experiment: qHTS assay to identify small molecule antagonists of the androgen receptor (AR) signaling pathway using the MDA cell line in the presence of 0.5 nM R1881 (AID 1259243); also: nearly all actives have a fitted effect of over 50% in size; also: potency is read from the fitted curve at half-maximal effect
# Outline: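 Luminescence from an AR/GR-responsive MMTV-luciferase construct in MDA-kb2 breast carcinoma cells, read 30 min after ONE-Glo, following 16 hr co-treatment with compounds and 0.5 nM R1881.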
# [13] = A CellTox Green Cytotoxicity Assay to monitor cytotoxicity in HepG2 cells - 8 hour (AID 1224890); also: nearly all actives have a fitted effect of over 45% in size; also: potency is read from the fitted curve at half-maximal effect
# Outline: as §3
# [14] = qHTS assay to identify small molecule antagonists of the sonic hedgehog signaling (Shh) pathway - cell viability counter screen (AID 1259367); also: potency is read from the fitted curve at half-maximal effect; nearly all actives have a fitted effect of over 55% in size
# Outline: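 Viability was read by CellTiter-Fluor fluorescence in the same wells, reagent added 23 hr into compound treatment and incubated 1 hr at 37C. The 3T3 Gli1-Luc reporter cells (2,000/well) received conditioned medium after compound and ran 24 hr.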
# [15] = qHTS RealTime-Glo MT Cell Viability Assay in HepG2 cells - 16 hour (AID 1224885)
# Outline: as §4
# [16] = qHTS assay to identify small molecule antagonists of the androgen receptor (AR) signaling pathway using the MDA cell line in the presence of 0.5 nM R1881 - cell viability counter screen (AID 1259242); also: potency is read from the fitted curve at half-maximal effect; nearly all actives have a fitted effect of over 45% in size
# Outline: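 Cells seeded at 3,000/well and allowed 5 hr at 37C, 0% CO2 before compound transfer and R1881 (0.5 nM final) addition; 16 hr later, live-cell protease fluorescence indicated cytotoxicity.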
# Tags tell the direction and shape of the fitted curve.
# UniProt P10275, sequence (P10275 whole entry, looked up): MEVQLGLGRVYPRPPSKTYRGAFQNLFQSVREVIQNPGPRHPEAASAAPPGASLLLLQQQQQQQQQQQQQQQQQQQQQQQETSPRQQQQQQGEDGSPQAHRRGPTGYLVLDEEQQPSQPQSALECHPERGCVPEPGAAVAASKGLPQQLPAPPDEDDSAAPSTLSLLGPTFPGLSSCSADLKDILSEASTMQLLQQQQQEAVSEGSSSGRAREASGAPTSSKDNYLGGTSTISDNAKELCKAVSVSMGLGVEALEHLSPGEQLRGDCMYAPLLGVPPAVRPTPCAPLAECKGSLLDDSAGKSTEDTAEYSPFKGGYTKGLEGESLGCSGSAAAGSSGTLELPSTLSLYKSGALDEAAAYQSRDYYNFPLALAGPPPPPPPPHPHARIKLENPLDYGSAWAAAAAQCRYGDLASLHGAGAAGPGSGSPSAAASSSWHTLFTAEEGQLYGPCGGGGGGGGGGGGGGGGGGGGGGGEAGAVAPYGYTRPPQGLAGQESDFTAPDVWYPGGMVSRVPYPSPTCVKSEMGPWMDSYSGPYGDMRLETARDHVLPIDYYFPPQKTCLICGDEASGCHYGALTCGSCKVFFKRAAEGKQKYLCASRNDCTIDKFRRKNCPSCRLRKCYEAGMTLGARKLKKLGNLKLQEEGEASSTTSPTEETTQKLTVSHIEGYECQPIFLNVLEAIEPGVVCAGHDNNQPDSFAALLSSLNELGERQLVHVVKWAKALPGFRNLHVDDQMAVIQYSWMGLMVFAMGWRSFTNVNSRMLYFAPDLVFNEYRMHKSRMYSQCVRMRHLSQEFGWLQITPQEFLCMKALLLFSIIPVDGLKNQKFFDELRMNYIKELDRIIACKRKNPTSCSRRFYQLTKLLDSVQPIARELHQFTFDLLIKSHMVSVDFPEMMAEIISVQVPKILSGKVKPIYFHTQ
# UniProt P03372, sequence (P03372 whole entry, looked up): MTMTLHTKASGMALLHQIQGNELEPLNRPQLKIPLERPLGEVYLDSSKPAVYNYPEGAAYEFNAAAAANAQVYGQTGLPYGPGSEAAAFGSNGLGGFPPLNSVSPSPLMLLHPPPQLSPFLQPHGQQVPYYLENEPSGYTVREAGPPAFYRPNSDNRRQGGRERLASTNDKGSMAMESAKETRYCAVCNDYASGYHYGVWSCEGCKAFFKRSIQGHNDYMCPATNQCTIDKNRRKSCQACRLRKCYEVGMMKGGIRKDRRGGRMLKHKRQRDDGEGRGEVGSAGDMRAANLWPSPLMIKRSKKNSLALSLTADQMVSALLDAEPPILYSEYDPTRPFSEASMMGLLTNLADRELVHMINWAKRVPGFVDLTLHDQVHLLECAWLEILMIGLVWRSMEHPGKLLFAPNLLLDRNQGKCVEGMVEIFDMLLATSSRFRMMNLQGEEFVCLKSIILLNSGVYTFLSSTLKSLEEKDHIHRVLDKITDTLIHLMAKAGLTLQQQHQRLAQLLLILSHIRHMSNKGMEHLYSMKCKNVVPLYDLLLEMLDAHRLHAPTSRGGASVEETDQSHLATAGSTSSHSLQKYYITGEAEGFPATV
smiles,measurement,setting,value
C=CCCCCCCCC,Potency,[1],"inconclusive: 7.81 µM [rising, partial curve, poor fit]"
NC(N)=NCCC[C@H](N)C(=O)O,"activity change, negative = cytotoxicity",[1],inactive: 14% [at 6.97 µM]
Clc1cccc(C(c2ccc3nc[nH]c3c2)n2ccnc2)c1 (stereo not given),Potency,[1],inactive
O=C(O)c1ccccc1-c1ccc(C(F)(F)F)cc1,Potency,[1],inactive
CCCCOC(=O)c1ccccc1C(=O)OCC(CC)CCCC (stereo not given),Potency,[1],inactive
O=C(O)CN(CCCN(CC(=O)O)CC(=O)O)CC(=O)O,"activity change, negative = cytotoxicity",[1],inactive: -10.1% [at 15.8 µM]
Cc1ccc(C2OC[C@@H]3OC(c4ccc(C)cc4)O[C@H]([C@H](O)CO)[C@@H]3O2)cc1 (stereo not given in full),Potency,[1],"inconclusive: 54.9 µM [rising, partial curve]"
same,Potency,[2],"inconclusive: 49 µM [activator, single point]"
same,Potency,[3],"inconclusive: 54.9 µM [rising, partial curve]"
same,Potency,[4],"inconclusive: 54.9 µM [rising, partial curve]"
same,Potency,[5],"inconclusive: 49 µM [activator, single point]"
same,Potency,[6],inactive
same,Potency,[7],inactive
CC(C)NC[C@@H](O)COc1cccc2ccccc12,Potency,[1],inactive
CCCNCC(O)COc1ccccc1C(=O)CCc1ccccc1 (stereo not given),Potency,[1],"inconclusive: 26.8 µM [rising, single point]"
same,Potency,[8],"inconclusive: 26.8 µM [activator, single point]"
same,Potency,[3],active: 2.13 µM
same,Potency,[4],active: 2.13 µM
same,Potency,[9],"inconclusive: 5.62 µM [activator, partial curve]"
CNCC[C@@H](Oc1ccccc1C)c1ccccc1,Potency,[1],"inconclusive: 23.9 µM [rising, partial curve]"
same,Potency,[10],"inconclusive: 1.69 µM [activator, partial curve]"
same,Potency,[11],"inconclusive: 16.9 µM [rising, partial curve]"
same,Potency,[12],"inconclusive: 33.5 µM [inhibitor, single point]"
Oc1ccc(/C=C/c2cc(O)cc(O)c2)cc1,Potency,[1],"inconclusive: 55.4 µM [falling, single point]"
same,Potency,[8],"inconclusive: 55.4 µM [activator, single point] and inconclusive: 54.9 µM [activator, single point] and inconclusive: 95.2 nM [activator, single point]"
same,Potency,[3],"inconclusive: 24.8 µM [cytotoxic, partial curve] and inconclusive: 9.77 µM [cytotoxic, full curve] and inconclusive: 23.9 µM [cytotoxic, partial curve, poor fit]"
same,Potency,[13],"inconclusive: 0.0952 µM [activator, single point]"
same,Potency,[12],inactive
same,Potency,[7],"inconclusive: 69.2 µM [inhibitor, single point]"
same,Potency,[14],"active: 30.9 µM and active: 27.3 µM and inconclusive: 23.7 µM [cytotoxic, partial curve]"
COc1cc2c(cc1OC)C(=O)CC2,Potency,[1],inactive
same,Potency,[8],inactive
same,Potency,[3],inactive
same,Potency,[7],"inconclusive: 21.1 µM [inhibitor, partial curve]"
CCOC(=O)Cn1c(=O)sc2cccc(Cl)c21,Potency,[1],inactive
same,Potency,[2],inactive
same,Potency,[15],"inconclusive: 21.9 µM [cytotoxic, partial curve]"
same,Potency,[7],inactive
NC(N)=N/N=C/c1c(Cl)cccc1Cl,Potency,[1],"inconclusive: 21.3 µM [rising, partial curve]"
same,Potency,[2],inactive
same,Potency,[8],"inconclusive: 26.8 µM [activator, single point]"
same,Potency,[11],"inconclusive: 21.3 µM [rising, partial curve]"
same,Potency,[13],inactive
same,Potency,[16],"inconclusive: 29.8 µM [cytotoxic, single point]"
same,Potency,[9],"inconclusive: 12.6 µM [activator, single point]"
O=C(O)Cc1sc(-c2ccccc2)nc1-c1ccc(Cl)cc1,Potency,[1],"inconclusive: 23.9 µM [falling, partial curve, poor fit]"
CC1(C)S[C@@H]2[C@H](NC(=O)Cc3ccccc3)C(=O)N2[C@H]1C(=O)O (tested in a mixture with another compound),Potency,[1],"inconclusive: 6.01 µM [rising, partial curve, poor fit]"
CCNC(=O)NCCCOc1cccc(CN2CCCCC2)c1,Potency,[1],inactive
same,Potency,[2],inactive
same,Potency,[8],"inconclusive: 26.8 µM [activator, single point]"
